Data: paper PMC3538594 (PLoS ONE, 2013)

Experiments:
[1] = target: recombinant complex II (Thermus thermophilus, UniProt Q5SIC0); test: EPR signal of the [2Fe-2S] cluster (axial/rhombic transition); set-up: species or system T. thermophilus; settings: in words
Method: EPR spectra were recorded on a Bruker ElexSys X-band spectrometer fitted with an Oxford Instrument He-cryostat and temperature control system. Buffers used were either 50 mM MOPS at pH 7 or a mixture of 100 mM MOPS and 100 mM piperazine for the pH experiments. […] Additions of reducing agents were performed at room temperature followed by vortexing and freezing of the sample in liquid nitrogen within 5 min after addition.
Figure 5 Influence of redox mediators, buffer and inhibitors on EPR spectra of the recombinant complex II. […] The spectrum labeled ‘asc’ was obtained on a sample reduced by 5 mM ascorbate, ‘malate’ by addition of 20 mM malate, ‘dith’ by addition of 1 mM dithionite. Vertical lines indicate the position of the gx-signal. Spectra were recorded at a temperature of 50 K, microwave power of 64 mW and a modulation amplitude of 1 mT.
Protein concentration was 10 µM. Spectra were recorded at a temperature of 50 K, microwave power of 64 mW and a modulation amplitude of 1 mT.

[2] = target: T. thermophilus complex II (Thermus thermophilus, UniProt Q5SIB8+Q5SIB9+Q5SIC0+Q5SIC1); test: DCPIP/1,4-NQ activity assay, statements across enzyme forms; assay type: biochemical
Text: Kinetic experiments with NQNO support this interpretation.

| SMILES | influence on the rhombicity of the [2Fe-2S] EPR signal [1] | inhibition at 50 µM ([2]; 0.05 mM NQNO, 30°C, read-out: DCPIP/1,4-NQ activity inhibited to) | Ki ([2]; […], read-out: Ki, non-competitive mode) |
| --- | --- | --- | --- |
| O=C(O)CC[N+](=O)[O-] [3-NP, 3-Nitropropionic acid] | prevented the transition to the rhombic signal when succinate was added |  |  |
| CCCCCCCCCc1cc(O)c2ccccc2[n+]1[O-] [NQNO] |  | 40% | 70 to 88 µM |
